Source: US20260193370A1 (SUZHOU SUNCADIA BIOPHARMACEUTICALS, published 2026)

Columns and labels:
[1] = target: T1, human RANKL protein (Sino Biological, 11682-HNCH) (human, UniProt O14788 136-317, limits assumed); assay: cell-based or functional assay
T1 sequence (looked up): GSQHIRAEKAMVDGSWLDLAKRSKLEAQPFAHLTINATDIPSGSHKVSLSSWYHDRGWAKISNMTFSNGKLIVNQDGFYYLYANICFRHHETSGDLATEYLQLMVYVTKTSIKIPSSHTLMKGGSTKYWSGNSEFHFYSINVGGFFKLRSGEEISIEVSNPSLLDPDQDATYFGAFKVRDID

[2] = target: T1, human RANKL protein (Sino Biological, …); assay: cell-based or functional assay; remark: listed apart in the source
[3] = target: human NGF protein (Sino biological, 11050-HNAC) (human, UniProt P01138 part only); assay: cell-based or functional assay
[4] = target: T1, human RANKL protein (Sino Biological, …); assay: SPR (Biacore), antibody captured on Protein A chip
Method: Reaction signals were detected in real time by using Biacore, and binding and dissociation curves were obtained. After dissociation was complete in each cycle, the biochip was washed and regenerated with a glycine-hydrochloric acid regeneration solution (GE, BR-1003-54) having a pH of 1.5. Fitting was performed on the experimental data using BIAevaluation version 4.1 software with a 1:1 model, and affinity values were obtained.

Chain of UniProt P01138 (P01138 122-241 limits assumed): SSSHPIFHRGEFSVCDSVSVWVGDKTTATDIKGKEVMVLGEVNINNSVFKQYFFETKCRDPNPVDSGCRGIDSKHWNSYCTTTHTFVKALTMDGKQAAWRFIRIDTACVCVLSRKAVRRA

B1: Bispecific antibody 1 (bispecific antibody, human IgG4 S228P, kappa)
heavy: EVQLLESGGGLVQPGGSLRLSCAASGFTFSSYAMSWVRQAPGKGLEWVSGITGSGGSTYYADSVKGRFTISRDNSKNTLYLQMNSLRAEDTAVYYCVKDPGTTSIMSWFDPWGQGTLVTVSSASTKGPQVQLQESGPGLVKPSETLSLTCTVSGFSLIGYDLNWIRQPPGKGLEWIGIIWGDGTTDYNSAVKSRVTISKDTSKNQFSLKLSSVTAADTAVYYCARGGYWYATSYYFDYWGQGTLVTVSSASTKGPSVFPLAPCSRSTSESTAALGCLVKDYFPEPVTVSWNSGALTSGVHTFPAVLQSSGLYSLSSVVTVPSSSLGTKTYTCNVDHKPSNTKVDKRV[human IgG4 Fc with S228P (EU numbers) not spelt out]
light: EIVLTQSPGTLSLSPGERATLSCRASQSVRGRYLAWYQQKPGQAPRLLIYGASSRATGIPDRFSGSGSGTDFTLTISRLEPEDFAVFYCQQYGSSPRTFGQGTKVEIKTVAAPDIQMTQSPSSLSASVGDRVTITCRASQSISNNLNWYQQKPGKAPKLLIYYTSRFHSGVPSRFSGSGSGTDFTFTISSLQPEDIATYYCQQEHTLPYTFGQGTKLEIKRTVAAPSVFIFPPSDEQLKSGTASVVCLLNNFYPREAKVQWKVDNALQSGNSQESVTEQDSKDSTYSLSSTLTLSKADYEKHKVYACEVTHQGLSSPVTKSFNRGEC
notes: DVD-IgG format; First chain: anti-RANKL VH, linker ASTKGP, anti-NGF VH, IgG4 constant region; Second chain: anti-RANKL VL, linker TVAAP, anti-NGF VL, kappa constant region; also called anti-RANKL-NGF bispecific antibody; RANKL-NGF bispecific antibody
In the case of B1, the “Osteoclast differentiation-inhibiting activity, fold relative to denosumab” value [1] is reported as greater than 3.3 fold, the “Osteoclast differentiation-inhibiting activity, IC50 (Raw264.7 cells with human RANKL, TRAP assay)” value [2] is reported as 1.19 nM and the “TF-1 cell proliferation-inhibiting activity, IC50 (TF-1 cells with human NGF, Cell-titer Glo)” value [3] is reported as 3.16 nM. For the same binder, the “fold affinity relative to denosumab” value [4] was 3.8 fold.
